Test results published in PubChem BioAssay AID588579 (National Center for Advancing Translational Sciences (NCATS), 2011).
Several values for one entry are separate records, joined by “and”; a condition that tells them apart may be missing. Identical values can stand only once. The whole screen tested about 400,000 compounds, of which about 2,200 (0.55%) were called active. The inconclusive results got no clear call from the source; some entries with a clear call stand among them for comparison. Calls come from the whole dose curve; as a rule, active = well fitted inhibition curve with a large enough effect; inconclusive = small, poorly fitted or top-dose-only effect, or another doubt; inactive = no such curve, though single readings can be large or run the other way. A potency beside an inconclusive call is a rough fit, not a confirmed value.

target: DNA polymerase kappa (Homo sapiens) (UniProt Q9UBT6); assay: qHTS for Inhibitors of Polymerase Kappa; conditions: purified Pol kappa, fluorescent DNA synthesis assay, 10 min; series mostly up to 107 µM; activity, negative = inhibition: at the top concentration
Summary of the method: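 First, compounds were pin-transferred onto 10 nM Pol kappa. After 15 min at room temperature, substrate was added to 50 nM final. Fluorescence was then measured kinetically at 0 and 10 min.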
% is set by controls: 0 for no effect and ±100 for the full control effect; potency is the fitted concentration of half-maximal effect; tags give direction and shape of the fitted curve.

Chain of UniProt Q9UBT6 (Q9UBT6 whole entry, looked up): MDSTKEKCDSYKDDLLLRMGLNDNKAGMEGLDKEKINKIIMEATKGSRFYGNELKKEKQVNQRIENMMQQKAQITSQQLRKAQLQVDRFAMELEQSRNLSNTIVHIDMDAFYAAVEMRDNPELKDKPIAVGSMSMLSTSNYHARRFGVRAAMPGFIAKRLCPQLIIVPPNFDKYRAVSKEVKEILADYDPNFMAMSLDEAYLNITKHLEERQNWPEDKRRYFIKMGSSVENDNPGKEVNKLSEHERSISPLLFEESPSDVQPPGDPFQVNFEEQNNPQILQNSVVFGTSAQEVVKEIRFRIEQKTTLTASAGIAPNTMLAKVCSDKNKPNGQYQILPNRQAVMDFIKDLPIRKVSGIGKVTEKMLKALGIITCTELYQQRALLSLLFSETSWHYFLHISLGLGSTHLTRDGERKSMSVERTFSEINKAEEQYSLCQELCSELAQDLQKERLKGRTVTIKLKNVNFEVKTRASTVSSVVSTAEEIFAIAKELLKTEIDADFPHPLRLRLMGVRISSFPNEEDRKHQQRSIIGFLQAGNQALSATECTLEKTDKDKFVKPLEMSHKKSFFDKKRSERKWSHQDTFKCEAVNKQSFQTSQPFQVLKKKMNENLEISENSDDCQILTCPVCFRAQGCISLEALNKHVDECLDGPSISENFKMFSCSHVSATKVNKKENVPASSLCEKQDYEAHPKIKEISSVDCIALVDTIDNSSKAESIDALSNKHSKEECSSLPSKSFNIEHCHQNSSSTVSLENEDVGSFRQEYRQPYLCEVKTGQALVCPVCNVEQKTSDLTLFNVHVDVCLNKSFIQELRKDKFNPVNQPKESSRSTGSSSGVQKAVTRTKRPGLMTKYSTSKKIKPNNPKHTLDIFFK

Row | Structure (SMILES) | Potency | activity, negative = inhibition
1 | C=CCOCCN1C(=O)C2C3C=CC(C2C1=O)C1C2C(=O)N(CCOCC=C)C(=O)C2C31 (stereo not given) | inconclusive: 89.1 µM [inhibitor, single point] | –
2 | CCOC(=O)C(C)Sc1ccc2nnc(-c3ccc(OCC)cc3)n2n1 (stereo not given) | inconclusive: 100 µM [inhibitor, single point] | –
3 | CCOc1ccccc1NC(=O)C(C)Sc1nc2c(c(=O)[nH]1)CCCC2 (stereo not given) | – | inactive: -2.56%
4 | O=C(N/N=C/c1cccn1-c1cccc(C(=O)O)c1)Nc1ccccc1 | active: 79.4 µM | –
5 | O=c1cc(O)c2sc(Nc3ccc(F)cc3)nc2[nH]1 | – | inactive: -11.7%
6 | COc1ccc2nc(SCC(=O)Nc3ccc(S(=O)(=O)N4CCCC4)cc3)c(C#N)cc2c1 | – | inactive: 11.8%
7 | CCCCCCCCCCC(C)(C)C(=O)Nc1c(OC)cc(OC)cc1OC | inconclusive: 37.7 µM [inhibitor, partial curve, poor fit] | –
8 | COc1ccccc1N1CCN(C2=CC(=O)CCC2)CC1 | inconclusive: 89.1 µM [inhibitor, single point] | –
9 | COc1cccc(/C=N/N2C(=O)CSC2=S)c1O | inconclusive: 79.4 µM [inhibitor, partial curve, poor fit] | –
10 | Cc1ccc(NC(=O)CC2Nc3cccc4cccc(c34)NC2=O)cc1 (stereo not given) | inconclusive: 79.4 µM [inhibitor, partial curve, poor fit] | –
11 | CCOc1ccc(-c2cc(N)n(S(=O)(=O)c3ccc(OC)c(OC)c3)n2)cc1 | inconclusive: 79.4 µM [inhibitor, partial curve] | –
12 | Cc1c(Cl)c([N+](=O)[O-])nn1CC(=O)NCc1cccs1 | inconclusive: 89.1 µM [inhibitor, single point] | –
13 | CCNC(=O)CC1C(=O)N(c2ccc(F)cc2)C(=O)N1CCc1ccc(OC)cc1 (stereo not given) | inconclusive: 89.1 µM [inhibitor, partial curve, poor fit] | –
14 | O=C(O)c1cccc(Cn2c(Cl)c(/C=N/NC(=O)c3ccccc3Cl)sc2=O)c1 | – | inactive: -1.26%
15 | COc1ccc2cc(CNc3ccc(OC)c(OC)c3)c(=O)n(CC(=O)Nc3ccc(C)cc3)c2c1 | – | inactive: 2.85%
16 | C/C=C\C=C/C(=O)Nc1cccc(C2=NOC3(C2)C[C@@H](C(N)=O)N(C(=O)/C=C/CC)C3)c1 (stereo not given in full) | inconclusive: 79.4 µM [inhibitor, partial curve, poor fit] | –
17 | Cc1nc2ccc(S(=O)(=O)CCC(=O)Nc3ccccc3C)cc2s1 | inconclusive: 89.1 µM [inhibitor, single point] | –
18 | CC[C@@H]1C(c2ccccc2)=NN(c2ccccc2)[C@H]1C(=O)N1CCOC1=O | inconclusive: 31.6 µM [inhibitor, partial curve, poor fit] | –
19 | Cc1c(NS(=O)(=O)c2cc(C(=O)NCCN(C)C)ccc2Cl)c(=O)n(-c2ccccc2)n1C | inconclusive: 89.1 µM [inhibitor, partial curve, poor fit] | –
20 | CCOc1cc(/C=C(/C#N)c2nc3ccccc3[nH]2)ccc1OCc1ccc(C(=O)O)o1 | inconclusive: 89.1 µM [inhibitor, partial curve, poor fit] | –
21 | COc1ccc(Oc2ncc3nc(-c4cn(C)c5ccccc45)c(=O)n(C)c3n2)cc1 | inconclusive: 3.16 µM [inhibitor, partial curve, poor fit] | –
22 | COc1ccc(OCC(=O)N(C)CC2COc3ccccc3O2)cc1 (stereo not given) | – | inactive: -11%

Row | Structure (SMILES) | Potency | activity, negative = inhibition
23 | CCOC(=O)c1c(C)[nH]c(C)c1S(=O)(=O)N1CCCC(C(=O)N2CCN(c3cc(C)ccc3C)CC2)C1 (stereo not given) | – | inactive: -4.98% [at 60.1 µM]
24 | CS(=O)(=O)c1ccc2nc(NC(=O)c3ccc(NS(=O)(=O)c4cccc([N+](=O)[O-])c4)cc3)sc2c1 | – | inactive: -16.1%
25 | CCC(=O)N[C@@H]1CCc2cccc(OC)c2C1 | inconclusive: 0.01 µM [inhibitor, full curve, poor fit] | –
26 | COc1ccc(-n2nc3c(N4CCC(C(=O)NCc5cccc(C)c5)CC4)nnc(C)c3c2C)cc1 | – | inactive: -18.7%
27 | O=C(NCCCn1ccnc1)c1ccco1 | – | inactive: -3.36%
28 | Cc1nnc(N/N=C\c2ccc(-c3cccc(C(=O)O)c3)o2)n1N | inconclusive: 89.1 µM [inhibitor, single point] | –
29 | COc1cccc2c1C(=O)c1c(O)c3c(c(O)c1C2=O)C[C@](O)(C(C)=O)C[C@H]3O[C@@H]1C[C@H](N)[C@H](O)[C@H](C)O1 | active: 2.38 µM | –
30 | CCCCn1c(SCC(=O)NC(=O)NCc2ccco2)nc2cc(S(N)(=O)=O)ccc21 | inconclusive: 89.1 µM [inhibitor, single point] | –
31 | Cc1ccc(C)c(N2CCN(S(=O)(=O)c3ccc4[nH]c(=O)c(=O)[nH]c4c3)CC2)c1 | inconclusive: 89.1 µM [inhibitor, single point] | –
32 | O=C(O)c1cc(=O)c2c3nc4ccccc4oc-3cc(=O)c2[nH]1 | active: 8.91 µM and active: 10 µM | –
33 | CC1(C)[C@@H](O[C@H]2O[C@H](C(=O)O)[C@@H](O)[C@H](O)[C@H]2O[C@@H]2O[C@H](C(=O)O)[C@@H](O)[C@H](O)[C@H]2O)CC[C@]2(C)[C@H]3C(=O)C=C4[C@@H]5C[C@@](C)(C(=O)O)CC[C@]5(C)CC[C@@]4(C)[C@]3(C)CC[C@@H]12 | inconclusive: 31.6 µM [inhibitor, partial curve, poor fit] | –
34 | C[C@@H]1NC(=O)c2cc([N+](=O)[O-])cc(I)c2NCCCC[C@@H](C(N)=O)NC(=O)[C@H](CCC(=O)O)NC1=O | inconclusive: 56.2 µM [inhibitor, partial curve] | –
35 | COc1cccc(/C=C/C(=O)c2ccc[nH]2)c1 | – | inactive: -12.4%
36 | O=C(c1ccc(-c2ccc([N+](=O)[O-])cc2)o1)N1CCCCCCC1 | inconclusive: 79.4 µM [inhibitor, single point] | –
37 | CCN(CC)c1ccc(/C=C/c2c(C)cnc3ccc(C)cc23)cc1 | inconclusive: 112 µM [inhibitor, partial curve, poor fit] | –
38 | COc1cccc(-c2c(C(=O)N/N=C/c3cccs3)nnn2-c2nonc2N)c1 | – | inactive: -6.18%
39 | Cn1cnnc1SCc1ccc(C(=O)N/N=C(/CCC(=O)O)c2ccc(C(C)(C)C)cc2)cc1 | – | inactive: -9.01%
40 | Cc1cc(S(=O)(=O)NC2CCCCC2)c(C)s1 | – | inactive: -20.9%
41 | CN(C(N)=S)c1ccccc1 | inconclusive: 100 µM [inhibitor, single point] | –
42 | COc1ccc(C2CC(=O)Oc3ccc(C(C)(C)C)cc32)cc1 (stereo not given) | inconclusive: 63.1 µM [inhibitor, partial curve, poor fit] | –
43 | Nc1c(C(=O)C2CC2)sc2nc(-c3ccccc3)cc(C(F)(F)F)c12 | inconclusive: 25.1 µM [inhibitor, single point] | –
44 | O=Cc1c(-c2ccc(Cl)cc2)oc2ccc(O)cc12 | inconclusive: 89.1 µM [inhibitor, single point] | –

Row | Structure (SMILES) | Potency | activity, negative = inhibition
45 | O=C(NN1C(=O)/C(=C/c2ccc(O)c(O)c2)SC1=S)c1ccccc1 | active: 39.8 µM | –
46 | Cc1ccc2c(c1)N(C(=O)CCC(=O)N1CCC(C(N)=O)CC1)CC(C)O2 (stereo not given) | inconclusive: 100 µM [inhibitor, single point] | –
47 | COc1ccc(C2=CC3=C(Br)C(=O)C(C)(OC(=O)c4ccc(Cl)nc4)C(=O)C3=CO2)cc1 (stereo not given) | inconclusive: 50.1 µM [inhibitor, partial curve, poor fit] | –
48 | O=C(O)c1ccc(-n2cccc2/C=C2/SC(=O)N(CC(=O)N3CCCC3)C2=O)cc1 | active: 7.08 µM | –
49 | CC1=C(C(=O)Nc2ccccc2)C(c2ccc[nH]2)n2ncnc2N1 (stereo not given) | inconclusive: 28.2 µM [inhibitor, partial curve, poor fit] | –
50 | O=[N+]([O-])c1cccc(S(=O)(=O)Nc2ccc(-c3ccc(N4CCCC4)nn3)cc2)c1 | – | inactive: -15.2%
51 | CC1(c2ccccc2Cl)NC(=O)N(CC(=O)Nc2ccc3c(c2)OCO3)C1=O (stereo not given) | – | inactive: -16.2%
52 | CCC1(c2ccc(Cl)cc2)NC(=O)N(CC(=O)N2CCN(C(=O)c3ccco3)CC2)C1=O (stereo not given) | – | inactive: -8.76%
53 | N#C/C(=C(/O)CSc1nnc(Cc2cccs2)n1C1CCCCC1)c1nc2ccccc2[nH]1 | inconclusive: 89.1 µM [inhibitor, partial curve, poor fit] | –
54 | COc1ccc(NC(=O)c2csnn2)cc1 | – | inactive: -2.04%
55 | C/C(N)=C(/C#N)C(=O)COC(=O)Cc1coc2cc(C)ccc12 | inconclusive: 89.1 µM [inhibitor, single point] | –
56 | N#Cc1c(-c2ccco2)cc(-c2ccccc2)[nH]c1=O | inconclusive: 56.2 µM [inhibitor, partial curve, poor fit] | –
57 | CCN(c1ccccc1C)S(=O)(=O)c1nnc(NC(=O)c2ccco2)s1 | inconclusive: 89.1 µM [inhibitor, single point] | –
58 | O=CC(O)C1OC(=O)C(O)C1O (stereo not given) | active: 50.1 µM | –
59 | NCC(O)c1ccc(O)c(O)c1 (stereo not given) | active: 79.4 µM and active: 7.52 µM | –
60 | COC(=O)c1ccc(NC(=O)CCN2C(=O)NC(C)(C)C2=O)cc1 | inconclusive: 100 µM [inhibitor, single point] | –
61 | COCc1c(C(=O)N2CCc3ccccc32)oc2ccccc12 | inconclusive: 89.1 µM [inhibitor, single point] | –
62 | O=C(O)CCc1ccc(-c2ccc(Cl)cc2)o1 | inconclusive: 100 µM [inhibitor, single point] | –
63 | NC(=O)c1cc[n+](CC2=C(C(=O)O)N3C(=O)[C@@H](NC(=O)C(c4ccccc4)S(=O)(=O)[O-])[C@H]3SC2)cc1 (stereo not given in full) | active: 1 µM | –
64 | O=C(O[C@@H]1Cc2c(O)cc(O)cc2OC1c1ccc(O)c(O)c1)c1cc(O)c(O)c(O)c1 (stereo not given in full) | active: 0.178 µM | –
65 | Cc1ccc(C(=O)NCc2ccco2)cc1S(=O)(=O)N1CCCCC1 | inconclusive: 100 µM [inhibitor, single point] | –
